Measurements reported in publication PMC5515408.
The list shows a part of the results. At the low end of the ranking the order means little.

Biological target: MAX:MAX (p21) (UniProt P61244-2)
Assay: protein-binding microarray (anti-MAX antibody)
Conditions: PBM: 15 mM Tris-HCl pH 7.5, 100 mM KCl, 0.075% NP40, 7.5 mM beta-mercaptoethanol, 375 ng/ul BSA, 8 ng/ul poly(dA-dT):(dA-dT), 550 ng complex, 60 min, room …; high values mean tight binding; double strand, one strand shown; sequences stand for … in CCGGC…TTAATAGCTAAGATTACTATATCGACG

| Sequence | binding signal (log2 normalized fluorescence) |
| --- | --- |
| TGACGGCCCGTA | -0.704 |
| TGACAATGAGTA | 0.267 |
| TACGAATATGGT | -0.457 |
| TGAACTTGGGTA | -0.557 |
| TGACGCAGTGTA | -0.153 |
| CCCAAACTTCGA | -0.484 |
| TGACCAAGTGTA | -0.073 |
| TGATGATGAGTA | -0.35 |
| TGATCACCTGTA | 1.31 |
| TGACTAGTGTTA | -0.258 |
| AGACACGTCGTA | 2.39 |
| TGAAGTCTTGTA | -1.01 |
| TCACACGGGTTA | 2.8 |
| TGACAGTTGGTA | -0.32 |
| TGACACGTAGAA | 1.04 |
| TGAGTTCGGGTA | -1.13 |
| TTTTACGTGGTA | 0.616 |
| TGAAATCCAGTA | -0.802 |
| TGATGACCAGTA | -0.0893 |
| TGAGTTTTAGTA | -1.19 |
| TGAATAGGGGTA | -0.451 |
| TGAGCGAACGTA | -0.765 |
| TGATCGACGGTA | -0.856 |
| TGACATGCCGTA | 2.53 |
| TGAAAGCTCGTA | -1.17 |

| Sequence | binding signal (log2 normalized fluorescence) |
| --- | --- |
| TGAGTCCATGTA | -0.0823 |
| TGACAAGACGTA | -0.107 |
| TGATTAACCGTA | -0.986 |
| TGAAACTGAGTA | -0.817 |
| TGAAGGTATGTA | -0.0847 |
| TGACCAAGAGTA | -0.637 |
| TGTCCCGTGGTA | 2.5 |
| TGAGCACCGGTA | 0.427 |
| TATGATTACGTC | -0.717 |
| TGAGGCCAGGTA | -0.511 |
| TGACCCGATGTA | 0.302 |
| TGAATGGCTGTA | 0.472 |
| TGATCGCTGGTA | -0.679 |
| TGAAGAATCGTA | -0.712 |
| TGAGCTTTCGTA | -1.05 |
| TGAAAAGGGGTA | -0.143 |
| TTTACATATAAT | -0.608 |
| AGACACGAGGTT | 3.03 |
| TGGCAAGGGGTA | 0.278 |
| TGATTCCGGGTA | -1.43 |
| TGACGAATTGTA | -0.8 |
| TGAAGGTTTGTA | -0.729 |
| TGATTGCATGTA | 1.25 |
| TGACGCCCAGTA | -0.414 |
| TGAATACTTGTA | -0.939 |

| Sequence | binding signal (log2 normalized fluorescence) |
| --- | --- |
| TGAACATTTGTA | 0.0635 |
| TGAGGTAACGTA | -0.404 |
| TGAACGCGTGTA | 3.14 |
| TTCAACGTGGTA | 3.17 |
| TGATGACGGGTA | -0.0565 |
| TGACCTAAGGTA | -0.347 |
| TGATCGTGAGTA | 0.179 |
| TGAGGCGAAGTA | -0.977 |
| TGATACTAGGTA | -0.819 |
| TGATATCTTGTA | -1.14 |
| TGATTCATAGTA | -0.868 |
| TGATCTATGGTA | -0.981 |
| TGAGGTATAGTA | -0.844 |
| TGAGTGAGTGTA | -0.184 |
| TTCGATCCTGCA | -0.567 |
| TGAATTGACGTA | -0.745 |
| TGAGTGCTCGTA | 0.0237 |
| TGACAGGCTGTA | 0.825 |
| TGAAACGAGGCA | 1.27 |
| TGATCCACCGTA | -0.291 |
| TGAACTTGCGTA | -0.171 |
| TGATATTGAGTA | -0.926 |
| TGAGTGCATGTA | 1.12 |
| TGATACGGGGAA | -0.538 |
| TGAATGACAGTA | -0.0755 |

| Sequence | binding signal (log2 normalized fluorescence) |
| --- | --- |
| TGATGATTCGTA | -0.582 |
| TGACGTCCCGTA | -0.649 |
| TGAGCGGAAGTA | -0.87 |
| GGTCACGTGGTA | 3.37 |
| TGAGCGCGGGTA | 0.0344 |
| TGAGCACATGTA | 2.89 |
| TGACGTCGCGTA | -0.223 |
| TGAACAGCAGTA | -0.0069 |
| TGATGGTATGTA | 0.377 |
| TGACCGTGTGTA | 1.49 |
| TGAACGTATGTA | 0.41 |
| TGACCCATAGTA | -0.477 |
| TGAGTTCTAGTA | -0.874 |
| TGATATTTTGTA | -1.57 |
| TGACAGCTCGTA | 0.00848 |
| TGAGGGAAAGTA | -0.795 |
| TGAAAGGGCGTA | -0.776 |
| TGACGAACGGTA | -0.705 |
| TGATCCGGAGTA | -0.874 |
| TGATTCTGTGTA | -0.772 |
| TGACGGAAAGTA | -0.781 |
| TGACATGCGGCA | 3.21 |
| TGACGGCACGTA | 0.404 |
| TGATTAGGAGTA | -1.2 |
| TGAGATCGCGTA | -0.906 |

| Sequence | binding signal (log2 normalized fluorescence) |
| --- | --- |
| TGACACGTGGCG | 3.2 |
| TTAATCGTGGTA | 1.43 |
| TGAACAACAGTA | -0.42 |
| TGATGATCGGTA | -0.0714 |
| TGAACGAACGTA | -0.511 |
| TGAAATTAAGTA | -0.987 |
| TGAGCTAGGGTA | -1.35 |
| TGATCAAGTGTA | 0.125 |
| TGTCCCCTGGTA | -0.172 |
| TGATCACATGTA | 3.15 |
| TGAACACGGGTA | 1.98 |
| TAAAACGTTGTA | 1.44 |
| TGAACCTAGGTA | -0.72 |
| TGATCAATCGTA | -0.843 |
| TGAGTCTTCGTA | -1.19 |
| TGACATTAGGTA | -0.00999 |
| TGATACTACGTA | -0.713 |
| TGAATTAAAGTA | -1.23 |
| TGAATTGCTGTA | -0.174 |
| TGACGGTTAGTA | -0.6 |
| TGAAATTGTGTA | -0.422 |
| TGAGAAGGCGTA | -1.12 |
| TGAAAATGGGTA | -0.385 |
| TGATGTCTAGTA | -0.236 |
| TGATCGGCTGTA | -0.898 |

| Sequence | binding signal (log2 normalized fluorescence) |
| --- | --- |
| TGACGCGTGATA | 3 |
| TGAAATGGCGTA | -0.42 |
| TGATGTACTGTA | -0.0626 |
| TGAGAATTGGTA | -1.26 |
| TGAACAATAGTA | -0.612 |
| TGACGAGTTGTA | -0.0589 |
| TGAGATAATGTA | -0.776 |
| TGAACCTACGTA | -0.6 |
| TGATCATGGGTA | 1.13 |
| TGACGTAGCGTA | -0.893 |
| TGACTTTGAGTA | -0.931 |
| TGACTTCAGGTA | -0.497 |
| TGAAACGGAGTA | -0.679 |
| TGATGGGGGGTA | 2.21 |
| TGACTACGCGTA | -0.0968 |
| TGAGCAGCGGTA | -0.373 |
| TGACCAGGCGTA | 0.344 |
| TGATGACCGGTA | 0.0585 |
| TGATCTATAGTA | -1.19 |
| TGATTAAGCGTA | -1.07 |
| TGATCCTTGGTA | -1.04 |
| TGAAGCATGGTA | 3.01 |
| TGATGCCACGTA | 0.847 |
| TGATTTTCGGTA | -1.3 |
| TGACTATAGGTA | -0.834 |

| Sequence | binding signal (log2 normalized fluorescence) |
| --- | --- |
| TGACGCTATGTA | -0.607 |
| TGATCTTAGGTA | -1.37 |
| TGACCTACGGTA | -0.384 |
| TGACCATCTGTA | 1.1 |
| TGATAGTGCGTA | -0.183 |
| TGAAGCTTGGTA | -0.716 |
| TGACCGCAAGTA | 0.519 |
| TGAGTGTGGGTA | 0.513 |
| TGAGTTGTAGTA | -0.917 |
| AGAGAACGATGT | 0.455 |
| TGATGAGGGGTA | 0.293 |
| TGATAGTAGGTA | -0.639 |
| TGAAGGTACGTA | 0.00794 |
| TGAACTCCCGTA | -0.698 |
| TGATGTGTCGTA | 0.409 |
| TGATAATAAGTA | -1.04 |
| TGAAATACTGTA | -0.496 |
| AGACAAGTGGTA | 1.55 |
| TGAGGCACCGTA | -0.311 |
| TGAAGGCATGTA | 1.91 |
| TGACCTATCGTA | -0.652 |
| TGAGCACGCGTA | 2.76 |
| TGAAAACGTGTA | 2.54 |
| TGAGAGAGAGTA | -1.35 |
| TGATCGAGAGTA | -0.711 |
